Source: PubChem BioAssay AID1030 (National Center for Advancing Translational Sciences (NCATS), 2008)
About 16,000 (7.3%) of roughly 220,000 compounds were called active. This list was built around the results that the source calls inconclusive (neither active nor inactive); the mix of calls is not that of the screen. The call rests on the fitted dose curve; in most records, active means well fitted inhibition curve with a large enough effect (not every such curve was filed as active); inconclusive means small, poorly fitted or top-dose-only effect, or another doubt; inactive means no such curve, though single readings can be large or run the other way. Potencies of inconclusive entries are left out as doubtful fits.

Target: Aldehyde dehydrogenase 1A1 (Homo sapiens) (UniProt P00352)
Experiment: qHTS Assay for Inhibitors of Aldehyde Dehydrogenase 1 (ALDH1A1);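 on activity, negative = inhibition: plate controls were no enzyme wells and a reference inhibitor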
Settings: Purified ALDH1A1, NADH fluorescence, propionaldehyde substrate; series mostly up to 75.3 µM; activity, negative = inhibition: at the top concentration
Potency means the concentration at half of the fitted maximal effect; tags describe the fitted curve by direction and shape.

Sequence of UniProt P00352 (P00352 whole entry, looked up): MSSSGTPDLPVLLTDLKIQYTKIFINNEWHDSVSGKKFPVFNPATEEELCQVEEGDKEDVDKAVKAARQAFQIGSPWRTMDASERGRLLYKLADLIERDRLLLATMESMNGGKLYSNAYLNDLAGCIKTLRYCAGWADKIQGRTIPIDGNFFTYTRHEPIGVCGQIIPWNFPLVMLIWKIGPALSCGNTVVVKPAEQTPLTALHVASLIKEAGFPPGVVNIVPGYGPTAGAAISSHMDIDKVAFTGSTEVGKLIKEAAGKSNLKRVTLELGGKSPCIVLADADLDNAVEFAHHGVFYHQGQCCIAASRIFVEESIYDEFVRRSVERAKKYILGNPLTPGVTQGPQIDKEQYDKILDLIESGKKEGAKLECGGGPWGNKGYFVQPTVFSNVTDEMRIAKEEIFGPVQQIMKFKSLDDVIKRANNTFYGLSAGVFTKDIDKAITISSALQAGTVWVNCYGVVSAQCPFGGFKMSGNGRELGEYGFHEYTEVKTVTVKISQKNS

SMILES | Potency | activity, negative = inhibition
Cc1ccc2cc(CN(CC3CCCO3)C(=O)C(C)C)c(=O)[nH]c2c1 (centres undefined) | inconclusive [inhibitor, single point] | 
COc1ccccc1N1CCN(/N=C\c2ccc(C)o2)CC1 | inconclusive [inhibitor, partial curve] | 
N#CC(C#N)=C1c2cc(S(N)(=O)=O)ccc2-c2ccc(S(N)(=O)=O)cc21 | active: 7.94 µM | 
O=C(NNc1ccccc1Br)C(=O)n1ccc2ccccc21 |  | inactive: 4.2%
N#C/C(=C(/O)COC(=O)CCc1ccc(S(=O)(=O)N2CCOCC2)cc1)c1nc2ccccc2[nH]1 | inconclusive [inhibitor, single point] | 
O=c1c2ccccc2nc(/C=C/c2ccc3c(c2)OCO3)n1CCCO |  | inactive: -12.4%
CC(=O)Nc1ccc(SCC(=O)Nc2cc(C)on2)cc1 | active: 22.4 µM | 
CCCN1C(=O)/C(=C/c2cc(C)n(C)c2C)SC1=Nc1ccc(OC)cc1 | active: 2 µM | 
CCOC(=O)c1nn(-c2ccc(Br)cc2)cc1C(=O)c1cccc2ccccc12 |  | inactive: 4.8%
COC(=O)c1sccc1NC(=O)c1cc(-c2ccc(C)cc2C)nc2ccccc12 | inconclusive [inhibitor, single point] | 
Cc1ccc(NC(=O)COC(=O)Cn2cnc3ccccc32)cc1S(=O)(=O)N(C)C | active: 14.1 µM | 
CCC(C)NCCCCOc1cc(C)cc(C(C)C)c1 (centres undefined) | inconclusive [inhibitor, partial curve, poor fit] | 
CCOc1ccc(S(=O)(=O)N(C)c2ccc(OCC(=O)Nc3nccs3)cc2)cc1 | inconclusive [inhibitor, single point] | 
CCCCCCn1c(-c2ccco2)nc2oc3cc(OC)ccc3c(=O)c2c1=O | inconclusive [inhibitor, partial curve] | 
O=C(O)C(F)(F)C(F)(F)C(F)(F)C(F)(F)C(=O)O |  | inactive: 17.3% [at 13.5 µM]
O=C(COC(=O)c1ccccc1NC(=O)c1ccco1)NCc1ccc2c(c1)OCO2 | inconclusive [inhibitor, single point] | 
Cc1nn(-c2ccc(C(=O)OC(C)C)cc2)c(C)c1[N+](=O)[O-] | inconclusive [inhibitor, single point] | 
COc1ccc(CNC(=O)C(c2ccc(C)cc2)N(Cc2cccs2)C(=O)c2ccc3c(c2)OCCO3)cc1 (centres undefined) | inconclusive [inhibitor, full curve] | 
O=C(NC1CCS(=O)(=O)C1)c1cn(-c2ccccc2)nc1-c1ccccc1 (centres undefined) |  | inactive: -3.99%
